Results from PMC1405821 (Nucleic Acids Research, 2006).

Experiments:
cross-linking [1] = target: the molecule itself; test: cross-linking
native gel or EMSA = target: the molecule itself; test: native gel or EMSA
cross-linking [2] = target: the molecule itself; test: cross-linking; remark: listed apart in the source

B1: N-terminally FLAG-tagged S326C OGG1 expressed in HeLa cells (enzyme)
chain: not shown
stoichiometry N (cross-linking [1]): 2

B2: S326C CΔ19 OGG1 (domain or fragment)
chain: not shown
stoichiometry N (native gel or EMSA): 2

B3: polymorphic S326C OGG1 (enzyme)
chain: not shown
stoichiometry N (cross-linking [2]): 2
